Results reported in the supplement of paper PMC11876631.
± gives the standard deviation of the averaged measurements. Laboratory Escherichia coli strains with one amino-acid change in an essential protein, pooled on minimal glucose agar with carbenicillin or gentamicin at twice the control MIC (plus kanamycin and chloramphenicol for the plasmids), 48 h. Fold change of barcode share against drug-free plates; higher = less susceptible. Active = above 20 in both replicates (the paper's putatively resistant). '<' = one read or none on drug, '>' = one read or none on a drug-free plate. Shares are relative, so most strains fall below 1 when a few take over. Listed are strains with at least 15 reads on both drug-free plates, and hits; most hits rest on fewer reference reads. Replicate rank correlation about 0.5. Edits are read from barcodes.

B1: can I116Q (protein)
chain: MKDIDTLISNNALWSKMLVEEDPGFFEKLAQAQKPRFLWIGCSDSRVPAERLTGLEPGELFVHRNVANLVIHTDLNCLSVVQYAVDVLEVEHIIICGHYGCGGVQAAVENPELGLQNNWLLHIRDIWFKHSSLLGEMPQERRLDTLCELNVMEQVYNLGHSTIMQSAWKRGQKVTIHGWAYGIHDGLLRDLDVTATNRETLEQRYRHGISNLKLKHANHK
B2: can I116P (protein)
chain: MKDIDTLISNNALWSKMLVEEDPGFFEKLAQAQKPRFLWIGCSDSRVPAERLTGLEPGELFVHRNVANLVIHTDLNCLSVVQYAVDVLEVEHIIICGHYGCGGVQAAVENPELGLPNNWLLHIRDIWFKHSSLLGEMPQERRLDTLCELNVMEQVYNLGHSTIMQSAWKRGQKVTIHGWAYGIHDGLLRDLDVTATNRETLEQRYRHGISNLKLKHANHK
B3: trpC L405Q (protein)
chain: MMQTVLAKIVADKAIWVEARKQQQPLASFQNEVQPSTRHFYDALQGARTAFILECKKASPSKGVIRDDFDPARIAAIYKHYASAISVLTDEKYFQGSFNFLPIVSQIAPQPILCKDFIIDPYQIYLARYYQADACLLMLSVLDDDQYRQLAAVAHSLEMGVLTEVSNEEEQERAIALGAKVVGINNRDLRDLSIDLNRTRELAPKLGHNVTVISESGINTYAQVRELSHFANGFLIGSALMAHDDLHAAVRRVLLGENKVCGLTRGQDAKAAYDAGAIYGGLIFVATSPRCVNVEQAQEVMAAAPLQYVGVFRNHDIADVVDKAKVLSLAAVQLHGNEEQLYIDTLREALPAHVAIWKALSVGETLPAREFQHVDKYVLDNGQGGSGQRFDWSLLNGQSLGNVLQAGGLGADNCVEAAQTGCAGLDFNSAVESQPGIKDARLLASVFQTLRAY
B4: trpC I236P (protein)
chain: MMQTVLAKIVADKAIWVEARKQQQPLASFQNEVQPSTRHFYDALQGARTAFILECKKASPSKGVIRDDFDPARIAAIYKHYASAISVLTDEKYFQGSFNFLPIVSQIAPQPILCKDFIIDPYQIYLARYYQADACLLMLSVLDDDQYRQLAAVAHSLEMGVLTEVSNEEEQERAIALGAKVVGINNRDLRDLSIDLNRTRELAPKLGHNVTVISESGINTYAQVRELSHFANGFLPGSALMAHDDLHAAVRRVLLGENKVCGLTRGQDAKAAYDAGAIYGGLIFVATSPRCVNVEQAQEVMAAAPLQYVGVFRNHDIADVVDKAKVLSLAAVQLHGNEEQLYIDTLREALPAHVAIWKALSVGETLPAREFQHVDKYVLDNGQGGSGQRFDWSLLNGQSLGNVLLAGGLGADNCVEAAQTGCAGLDFNSAVESQPGIKDARLLASVFQTLRAY
B5: trpC L404D (protein)
chain: MMQTVLAKIVADKAIWVEARKQQQPLASFQNEVQPSTRHFYDALQGARTAFILECKKASPSKGVIRDDFDPARIAAIYKHYASAISVLTDEKYFQGSFNFLPIVSQIAPQPILCKDFIIDPYQIYLARYYQADACLLMLSVLDDDQYRQLAAVAHSLEMGVLTEVSNEEEQERAIALGAKVVGINNRDLRDLSIDLNRTRELAPKLGHNVTVISESGINTYAQVRELSHFANGFLIGSALMAHDDLHAAVRRVLLGENKVCGLTRGQDAKAAYDAGAIYGGLIFVATSPRCVNVEQAQEVMAAAPLQYVGVFRNHDIADVVDKAKVLSLAAVQLHGNEEQLYIDTLREALPAHVAIWKALSVGETLPAREFQHVDKYVLDNGQGGSGQRFDWSLLNGQSLGNVDLAGGLGADNCVEAAQTGCAGLDFNSAVESQPGIKDARLLASVFQTLRAY
B6: trpC L404W (protein)
chain: MMQTVLAKIVADKAIWVEARKQQQPLASFQNEVQPSTRHFYDALQGARTAFILECKKASPSKGVIRDDFDPARIAAIYKHYASAISVLTDEKYFQGSFNFLPIVSQIAPQPILCKDFIIDPYQIYLARYYQADACLLMLSVLDDDQYRQLAAVAHSLEMGVLTEVSNEEEQERAIALGAKVVGINNRDLRDLSIDLNRTRELAPKLGHNVTVISESGINTYAQVRELSHFANGFLIGSALMAHDDLHAAVRRVLLGENKVCGLTRGQDAKAAYDAGAIYGGLIFVATSPRCVNVEQAQEVMAAAPLQYVGVFRNHDIADVVDKAKVLSLAAVQLHGNEEQLYIDTLREALPAHVAIWKALSVGETLPAREFQHVDKYVLDNGQGGSGQRFDWSLLNGQSLGNVWLAGGLGADNCVEAAQTGCAGLDFNSAVESQPGIKDARLLASVFQTLRAY
B7: trpC L405P (protein)
chain: MMQTVLAKIVADKAIWVEARKQQQPLASFQNEVQPSTRHFYDALQGARTAFILECKKASPSKGVIRDDFDPARIAAIYKHYASAISVLTDEKYFQGSFNFLPIVSQIAPQPILCKDFIIDPYQIYLARYYQADACLLMLSVLDDDQYRQLAAVAHSLEMGVLTEVSNEEEQERAIALGAKVVGINNRDLRDLSIDLNRTRELAPKLGHNVTVISESGINTYAQVRELSHFANGFLIGSALMAHDDLHAAVRRVLLGENKVCGLTRGQDAKAAYDAGAIYGGLIFVATSPRCVNVEQAQEVMAAAPLQYVGVFRNHDIADVVDKAKVLSLAAVQLHGNEEQLYIDTLREALPAHVAIWKALSVGETLPAREFQHVDKYVLDNGQGGSGQRFDWSLLNGQSLGNVLPAGGLGADNCVEAAQTGCAGLDFNSAVESQPGIKDARLLASVFQTLRAY
B8: trpC L137P (protein)
chain: MMQTVLAKIVADKAIWVEARKQQQPLASFQNEVQPSTRHFYDALQGARTAFILECKKASPSKGVIRDDFDPARIAAIYKHYASAISVLTDEKYFQGSFNFLPIVSQIAPQPILCKDFIIDPYQIYLARYYQADACLPMLSVLDDDQYRQLAAVAHSLEMGVLTEVSNEEEQERAIALGAKVVGINNRDLRDLSIDLNRTRELAPKLGHNVTVISESGINTYAQVRELSHFANGFLIGSALMAHDDLHAAVRRVLLGENKVCGLTRGQDAKAAYDAGAIYGGLIFVATSPRCVNVEQAQEVMAAAPLQYVGVFRNHDIADVVDKAKVLSLAAVQLHGNEEQLYIDTLREALPAHVAIWKALSVGETLPAREFQHVDKYVLDNGQGGSGQRFDWSLLNGQSLGNVLLAGGLGADNCVEAAQTGCAGLDFNSAVESQPGIKDARLLASVFQTLRAY
B9: trpC I236Q (protein)
chain: MMQTVLAKIVADKAIWVEARKQQQPLASFQNEVQPSTRHFYDALQGARTAFILECKKASPSKGVIRDDFDPARIAAIYKHYASAISVLTDEKYFQGSFNFLPIVSQIAPQPILCKDFIIDPYQIYLARYYQADACLLMLSVLDDDQYRQLAAVAHSLEMGVLTEVSNEEEQERAIALGAKVVGINNRDLRDLSIDLNRTRELAPKLGHNVTVISESGINTYAQVRELSHFANGFLQGSALMAHDDLHAAVRRVLLGENKVCGLTRGQDAKAAYDAGAIYGGLIFVATSPRCVNVEQAQEVMAAAPLQYVGVFRNHDIADVVDKAKVLSLAAVQLHGNEEQLYIDTLREALPAHVAIWKALSVGETLPAREFQHVDKYVLDNGQGGSGQRFDWSLLNGQSLGNVLLAGGLGADNCVEAAQTGCAGLDFNSAVESQPGIKDARLLASVFQTLRAY
B10: trpC L404Q (protein)
chain: MMQTVLAKIVADKAIWVEARKQQQPLASFQNEVQPSTRHFYDALQGARTAFILECKKASPSKGVIRDDFDPARIAAIYKHYASAISVLTDEKYFQGSFNFLPIVSQIAPQPILCKDFIIDPYQIYLARYYQADACLLMLSVLDDDQYRQLAAVAHSLEMGVLTEVSNEEEQERAIALGAKVVGINNRDLRDLSIDLNRTRELAPKLGHNVTVISESGINTYAQVRELSHFANGFLIGSALMAHDDLHAAVRRVLLGENKVCGLTRGQDAKAAYDAGAIYGGLIFVATSPRCVNVEQAQEVMAAAPLQYVGVFRNHDIADVVDKAKVLSLAAVQLHGNEEQLYIDTLREALPAHVAIWKALSVGETLPAREFQHVDKYVLDNGQGGSGQRFDWSLLNGQSLGNVQLAGGLGADNCVEAAQTGCAGLDFNSAVESQPGIKDARLLASVFQTLRAY
B11: trpC L404A (protein)
chain: MMQTVLAKIVADKAIWVEARKQQQPLASFQNEVQPSTRHFYDALQGARTAFILECKKASPSKGVIRDDFDPARIAAIYKHYASAISVLTDEKYFQGSFNFLPIVSQIAPQPILCKDFIIDPYQIYLARYYQADACLLMLSVLDDDQYRQLAAVAHSLEMGVLTEVSNEEEQERAIALGAKVVGINNRDLRDLSIDLNRTRELAPKLGHNVTVISESGINTYAQVRELSHFANGFLIGSALMAHDDLHAAVRRVLLGENKVCGLTRGQDAKAAYDAGAIYGGLIFVATSPRCVNVEQAQEVMAAAPLQYVGVFRNHDIADVVDKAKVLSLAAVQLHGNEEQLYIDTLREALPAHVAIWKALSVGETLPAREFQHVDKYVLDNGQGGSGQRFDWSLLNGQSLGNVALAGGLGADNCVEAAQTGCAGLDFNSAVESQPGIKDARLLASVFQTLRAY
B12: trpC I236A (protein)
chain: MMQTVLAKIVADKAIWVEARKQQQPLASFQNEVQPSTRHFYDALQGARTAFILECKKASPSKGVIRDDFDPARIAAIYKHYASAISVLTDEKYFQGSFNFLPIVSQIAPQPILCKDFIIDPYQIYLARYYQADACLLMLSVLDDDQYRQLAAVAHSLEMGVLTEVSNEEEQERAIALGAKVVGINNRDLRDLSIDLNRTRELAPKLGHNVTVISESGINTYAQVRELSHFANGFLAGSALMAHDDLHAAVRRVLLGENKVCGLTRGQDAKAAYDAGAIYGGLIFVATSPRCVNVEQAQEVMAAAPLQYVGVFRNHDIADVVDKAKVLSLAAVQLHGNEEQLYIDTLREALPAHVAIWKALSVGETLPAREFQHVDKYVLDNGQGGSGQRFDWSLLNGQSLGNVLLAGGLGADNCVEAAQTGCAGLDFNSAVESQPGIKDARLLASVFQTLRAY

What follows are proteins tested against Escherichia coli (laboratory strain) (assay: barcode share on antibiotic plates over drug-free plates; higher = less susceptible). Details: antibiotic: carbenicillin; 2× MIC (3.1 µg/mL).
Method: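 A pool of E. coli strains, each edited to carry one amino-acid change in an essential protein, was grown for 48 h on minimal glucose agar with or without antibiotic; strain barcodes were sequenced; mean of two replicates.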

| Protein | fold change of barcode share |
| --- | --- |
| B1 | 0.742 ± 0.33 |
| B2 | 0.68 ± 0.6 |
| B3 | 0.705 ± 0.42 |
| B4 | > 23.8 [active] |
| B5 | 0.857 ± 0.34 |
| B6 | 0.581 ± 0.04 |
| B7 | 1.11 ± 0.13 |
| B8 | > 22.1 [active] |
| B9 | 0.69 ± 0.2 |
| B10 | 0.98 ± 0.17 |
| B11 | 0.666 ± 0.18 |
| B12 | 0.669 ± 0.19 |

Same assay, conditions: antibiotic: gentamicin; 2× MIC (MIC 0.45 µg/mL)

| Protein | fold change of barcode share |
| --- | --- |
| B1 | 0.0142 ± 0.0087 |
| B2 | < 0.00708 |
| B3 | 0.0113 ± 0.0062 |
| B5 | 0.0271 ± 0.024 |
| B6 | 0.00993 ± 0.0031 |
| B7 | < 0.00775 |
| B10 | 0.0129 ± 0.013 |
| B11 | 0.0237 ± 0.021 |
